# Some of the results follow.
# B1: Siglec-E (Mus musculus), Q91Y57 (protein)
# chain: MLLLLLLLLLWGIKGVEGQNPQEVFTLNVERKVVVQEGLCVLVPCNFSYLKKRLTDWTDSDPVHGFWYREGTDRRKDSIVATNNPIRKAVKETRNRFFLLGDPWRNDCSLNIREIRKKDAGLYFFRLERGKTKYNYMWDKMTLVVTALTNTPQILLPETLEAGHPSNLTCSVPWDCGWTAPPIFSWTGTSVSFLSTNTTGSSVLTITPQPQDHGTNLTCQVTLPGTNVSTRMTTRLNVSYAPKNLTVTIYQGADSVSTILKNGSSLPISEGQSLRLICSTDSYPPANLSWSWDNLTLCPSKLSKPGLLELFPVHLKHGGVYTCQAQHALGSQHISLSLSPQSSATLSEMMMGTFVGSGVTALLFLSVCILLLAVRSYRRKPARPAVVAPHPDALKVSVSQNPLVESQADDSSEPLPSILEAAPSSTEEEIHYATLSFHEMKPMNLWGQQDTTTEYSEIKFPQRTAWP
# Experiments:
# Experiment in all cases: glycan array binding signal (z-score within array); higher = stronger binding
# Settings in all cases: glycan notation: IUPAC condensed, linker removed
# [1] = target: Gal3S4S(b1-4)GlcNAc
# In short: (§1)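 Glycan array data came from 3228 arrays in the Consortium for Functional Glycomics database, and only arrays with an available protein sequence were kept. Glycan names were put into IUPAC-condensed notation, and columns mapping to the same glycan were averaged. The binding signal is a within-array Z-score, averaged across arrays of one protein sequence run at different concentrations or buffers and across linkers. A negative Z-score can be read as non-binding.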
# [2] = target: Gal3S6S(b1-4)GlcNAc
# In short: as §1
# [3] = target: Gal3S6S(b1-4)GlcNAc6S
# In short: as §1
# [4] = target: Gal4S(b1-4)GlcNAc
# In short: as §1
# [5] = target: Gal4S6S(b1-4)GlcNAc
# In short: as §1
# [6] = target: Gal6P(b1-4)GlcNAc
# In short: as §1
# [7] = target: Gal6S(b1-3)GlcNAc
# In short: as §1
# [8] = target: Gal6S(b1-3)GlcNAc6S
# In short: as §1
# [9] = target: Gal6S(b1-4)Glc
# In short: as §1
# [10] = target: Gal6S(b1-4)Glc6S
# In short: as §1
# [11] = target: Gal6S(b1-4)GlcNAc
# In short: as §1
# [12] = target: Gal6S(b1-4)GlcNAc6S
# In short: as §1
# [13] = target: GalNAc(a1-3)Gal
# In short: as §1
# [14] = target: GalNAc(a1-3)GalNAc
# In short: as §1
# [15] = target: GalNAc(a1-3)GalNAc(b1-3)Gal(a1-4)Gal(b1-4)Glc
# In short: as §1
# [16] = target: GalNAc(a1-3)GalNAc(b1-3)Gal(a1-4)Gal(b1-4)GlcNAc
# In short: as §1
# [17] = target: GalNAc(b1-3)Gal
# In short: as §1
# [18] = target: GalNAc(b1-3)Gal(a1-4)Gal(b1-4)GlcNAc
# In short: as §1
# [19] = target: GalNAc(b1-3)Gal(a1-4)Gal(b1-4)GlcNAc(b1-3)Gal(b1-4)Glc
# In short: as §1
# [20] = target: GalNAc(b1-3)Gal(a1-6)Gal(b1-4)Glc
# In short: as §1
# [21] = target: GalNAc(b1-3)GalNAc
# In short: as §1
# [22] = target: GalNAc(b1-3)GlcNAc
# In short: as §1
# [23] = target: GalNAc(b1-4)Gal(b1-4)Glc
# In short: as §1
# [24] = target: GalNAc(b1-4)GlcNAc
# In short: as §1
# [25] = target: GalNAc(b1-4)GlcNAc(b1-2)Man
# In short: as §1
# [26] = target: GalNAc(b1-4)GlcNAc(b1-2)Man(a1-3)[GalNAc(b1-4)GlcNAc(b1-2)Man(a1-6)]Man(b1-4)GlcNAc(b1-4)GlcNAc
# In short: as §1
# [27] = target: GalNAc(b1-4)GlcNAc(b1-3)GalNAc(b1-4)GlcNAc
# In short: as §1
# [28] = target: GalNAc(b1-4)GlcNAc6S
# In short: as §1
# [29] = target: GalNAc(b1-6)GalNAc
# In short: as §1
# [30] = target: GalNAc3S(b1-4)GlcNAc
# In short: as §1
# [31] = target: GalNAc3S(b1-4)GlcNAc3S
# In short: as §1
# [32] = target: GalNAc3S(b1-4)[Fuc(a1-3)]GlcNAc
# In short: as §1
# [33] = target: GalNAc4S6S(b1-4)GlcNAc
# In short: as §1
# [34] = target: GalNAc6S(b1-4)GlcNAc
# In short: as §1
# [35] = target: Glc(a1-4)Glc
# In short: as §1
# [36] = target: Glc(a1-4)Glc(a1-4)Glc(a1-4)Glc
# In short: as §1
# [37] = target: Glc(a1-6)Glc(a1-6)Glc
# In short: as §1
# [38] = target: Glc(a1-6)Glc(a1-6)Glc(a1-6)Glc
# In short: as §1
binder,measurement,setting,value
B1,glycan array binding signal (z-score),[1],-0.239
same,glycan array binding signal (z-score),[2],-0.294
same,glycan array binding signal (z-score),[3],-0.078
same,glycan array binding signal (z-score),[4],-0.335
same,glycan array binding signal (z-score),[5],-0.161
same,glycan array binding signal (z-score),[6],1.08
same,glycan array binding signal (z-score),[7],-0.349
same,glycan array binding signal (z-score),[8],0.536
same,glycan array binding signal (z-score),[9],-0.346
same,glycan array binding signal (z-score),[10],0.088
same,glycan array binding signal (z-score),[11],-0.529
same,glycan array binding signal (z-score),[12],-0.205
same,glycan array binding signal (z-score),[13],0.175
same,glycan array binding signal (z-score),[14],-0.409
same,glycan array binding signal (z-score),[15],-0.528
same,glycan array binding signal (z-score),[16],-0.229
same,glycan array binding signal (z-score),[17],-0.032
same,glycan array binding signal (z-score),[18],-0.488
same,glycan array binding signal (z-score),[19],-0.43
same,glycan array binding signal (z-score),[20],-0.359
same,glycan array binding signal (z-score),[21],-0.432
same,glycan array binding signal (z-score),[22],-0.423
same,glycan array binding signal (z-score),[23],4.05
same,glycan array binding signal (z-score),[24],-0.347
same,glycan array binding signal (z-score),[25],-0.482
same,glycan array binding signal (z-score),[26],-0.083
same,glycan array binding signal (z-score),[27],-0.588
same,glycan array binding signal (z-score),[28],-0.325
same,glycan array binding signal (z-score),[29],-0.408
same,glycan array binding signal (z-score),[30],-0.427
same,glycan array binding signal (z-score),[31],-0.301
same,glycan array binding signal (z-score),[32],0.019
same,glycan array binding signal (z-score),[33],-0.147
same,glycan array binding signal (z-score),[34],-0.338
same,glycan array binding signal (z-score),[35],-0.238
same,glycan array binding signal (z-score),[36],1.05
same,glycan array binding signal (z-score),[37],-0.309
same,glycan array binding signal (z-score),[38],1.1
